Assay results as given in PubChem BioAssay AID504832 (National Center for Advancing Translational Sciences (NCATS), 2011).
The campaign covered roughly 310,000 compounds. About 18,000 (5.8%) were called active. The shares of active, inactive and inconclusive entries below differ from those in the screen. The call rests on the fitted dose curve; in most records, active means well fitted inhibition curve with a large enough effect; inconclusive means small, poorly fitted or top-dose-only effect, or another doubt; inactive means no such curve, though single readings can be large or run the other way. Potencies of inconclusive entries are left out as doubtful fits.

Test: Primary qHTS for delayed death inhibitors of the malarial parasite plastid, 48 hour incubation
Details: P. falciparum luciferase growth in erythrocytes; series mostly up to 28.7 µM; activity change, negative = inhibition: at the top concentration
How it was run: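 Firefly luciferase activity from engineered P. falciparum reports growth; inhibitors lower the luminescent signal. Cultures contained 2% hematocrit erythrocytes at 0.1% final parasitemia.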
On the % scale 0 is the no-effect control and ±100 the full control effect; potency means the concentration at half of the fitted maximal effect; tags describe the fitted curve by direction and shape.

SMILES	Potency	activity change, negative = inhibition
Cc1cccc2nc(CSc3nc4[nH]ncc4c(=O)n3-c3cccc(Cl)c3)cc(=O)n12	inconclusive [inhibitor, partial curve, poor fit]	
Cc1ccc(C)c2[nH]c(=O)c(CCNC(=O)c3ccc(S(=O)(=O)N(C)C)cc3)cc12	inconclusive [inhibitor, single point]	
CCCCOCCCNC(=O)N[C@@H](CCSC)C(=O)OC	inconclusive [inhibitor, single point]	
O=C(NC1CCCCCCC1)c1ccc(F)c(S(=O)(=O)N2CCOCC2)c1	inconclusive [inhibitor, single point]	
N=c1c(C(=O)NCC2CCCO2)cc2c(=O)n3ccccc3nc2n1C1CCCCC1 (centres undefined)		inactive: -6.8%
O=C(CN(C(=O)CCC(=O)Nc1nccs1)c1ccc(F)cc1)NCCc1ccccc1	inconclusive [inhibitor, partial curve]	
Cc1ccc(C(=O)N2CCCC(N3CCN(c4cccc(C(F)(F)F)c4)CC3)C2)s1 (centres undefined)	inconclusive [inhibitor, partial curve]	
O=C(c1cccc2nc3ccccc3nc12)N1CCOCC1		inactive: 5.5%
O=C(O)Cc1cc(I)c(Oc2ccc(O)c(I)c2)c(I)c1	inconclusive [inhibitor, partial curve, poor fit]	
CCOC(=O)/C=C/C(=O)Nc1ccc(S(=O)(=O)Nc2cc(C)on2)cc1	active: 10.4 µM	
COc1ccc(-c2cc(-c3ccccc3)c(C#N)c(SCC(=O)Nc3ncc(C)s3)n2)cc1	active: 13.1 µM	
O=C(NCc1ccco1)C(c1ccccc1)N(C(=O)Cc1cccs1)c1cccnc1 (centres undefined)	inconclusive [inhibitor, partial curve, poor fit]	
Cc1sc2nc(CSCC(=O)N(C)CC(=O)Nc3ccc(F)cc3)[nH]c(=O)c2c1C	inconclusive [inhibitor, single point]	
O=C(NCc1ccc2c(c1)CCO2)Nc1ccccc1	inconclusive [inhibitor, single point]	
Cn1c(SCc2ccccc2F)nc2cccnc21		inactive: 84%
O=C(O)/C=C\C(=O)Nc1ccc(N2CCN(c3ccc(Cl)c(Cl)c3)CC2)cc1	inconclusive [inhibitor, single point]	
Cc1nc2cccc(C)n2c(=O)c1Cl	inconclusive [inhibitor, single point]	
C=CCn1cccc(C(=O)Nc2cc(OC)c(OC)c(OC)c2)c1=O	inconclusive [inhibitor, single point]	
CCn1c(SCc2cccc(F)c2)nc2c(c1=O)SCC2	inconclusive [inhibitor, single point]	
CC(=O)N[C@@H](C)c1nc2ccccc2n1CCCN1CCN(c2nc(-c3ccc(C)cc3)cs2)CC1	inconclusive [inhibitor, full curve]	
COCC1CCCCN1C(=O)c1ccc(OC2CCN(Cc3ccccn3)CC2)cc1 (centres undefined)		inactive: 35.8%
COc1ccc(C(c2nnnn2Cc2ccc(F)cc2)N2CCN(c3ccc(OC)cc3)CC2)cc1 (centres undefined)	active: 10.4 µM	
O=C(/C=C/c1cccc([N+](=O)[O-])c1)c1cccs1		inactive: -0.984%

SMILES	Potency	activity change, negative = inhibition
c1ccc2c(c1)Nc1ccncc1S2	active: 14.7 µM	
O=C1c2ccccc2C2=Nc3ccccc3SC(c3ccccc3F)C12 (centres undefined)	active: 0.329 µM	
CCC1=C(OC(=O)N(CC)CC)N2C(=O)OC(=NCC3CC3)[C@]2(Cc2ccccc2)[C@H]2C1=CC[C@H]1C(=O)NC(=O)[C@H]12	active: 10.4 µM	
O=C(NCCCn1ccnc1)c1cccc(S(=O)(=O)Nc2ccc(F)cc2)c1	inconclusive [inhibitor, single point]	
Cc1cc(C(=O)C(=O)N(C)C)c(C)n1-c1ccc(Cl)cc1	inconclusive [inhibitor, partial curve, poor fit]	
CC1=C(C(=O)N2CCOCC2)C(c2ccc(C)cc2)NC(=S)N1 (centres undefined)		inactive: 20.4%
CCCCC(c1nnnn1CCOC)N1CCN(C)CC1 (centres undefined)		inactive: -4.96%
O=C(c1ccccc1)N1N=C(C(F)(F)F)CC1(O)c1ccccc1 (centres undefined)		inactive: 0%
COc1ccc(-c2csc(NC(=O)c3c(C)noc3C)n2)cc1		inactive: -3.3%
CCc1ccc(-c2nc(CN3CCC(C(=O)NCc4ccccc4OC)CC3)c(C)o2)cc1	inconclusive [inhibitor, partial curve, poor fit]	
O=C(Nc1nc(-c2ccc3ccccc3c2)cs1)C1CCN(S(=O)(=O)c2cccs2)CC1	inconclusive [inhibitor, partial curve]	
CCc1cc(=O)oc2cc(OCC(=O)NCCCN3CCCC3=O)c(Cl)cc12	inconclusive [inhibitor, single point]	
COCCN(C(=O)c1ccccc1F)c1nc(-c2ccc(OC)cc2)cs1	inconclusive [inhibitor, partial curve, poor fit]	
CC(=O)c1ccc(OCCCC(=O)OCC(=O)Nc2c(C)nn(-c3ccccc3)c2C)cc1	inconclusive [inhibitor, single point]	
COc1ccccc1-c1coc2cc(OC(=O)N3CCOCC3)ccc2c1=O		inactive: 37.1%
CCN(CC)S(=O)(=O)c1cc(NC(=O)CSc2n[nH]c(N)n2)ccc1C	inconclusive [inhibitor, single point]	
COc1ccc(CCN(Cc2cc3ccc(C)cc3[nH]c2=O)C(C)=O)cc1OC	active: 2.33 µM	
Clc1ccc(-c2csc(N/N=C\c3cccnc3)n2)cc1	inconclusive [inhibitor, partial curve]	
COc1ccc(-n2nc(C(=O)NCC(=O)NCc3ccco3)c3ccccc3c2=O)cc1Cl	inconclusive [inhibitor, partial curve, poor fit]	
Cc1ccc(-n2c(SCC(=O)NCc3ccc4c(c3)OCO4)nnc2-c2cccnc2)c(C)c1	inconclusive [inhibitor, full curve, poor fit]	
CC(=O)Nc1ccc(S(=O)(=O)Nc2cc(S(=O)(=O)N3CCCCC3)ccc2O)cc1	inconclusive [inhibitor, single point]	
O=C(O)CCc1ccc(S(=O)(=O)Nc2ccccc2C(=O)NCCc2ccccc2)cc1		inactive: 135%
CCOC(=O)N1CCN(C(=O)CCn2nc(-c3ccccc3)ccc2=O)CC1		inactive: 33.6%

SMILES	Potency	activity change, negative = inhibition
CC(C)(C)NC(=O)c1ccc2c(c1)C1C3CCC(C3)C1C(c1ccccc1)N2 (centres undefined)	inconclusive [inhibitor, partial curve, poor fit]	
COC(=O)c1ccc(CSc2ccc3nnc(-c4ccccn4)n3n2)o1	inconclusive [inhibitor, partial curve]	
COc1cc2c(cc1OC)-c1cc(Nc3ccccc3Br)nc(=O)n1CC2	inconclusive [inhibitor, single point]	
O=C(Cn1cnc2c(nnn2-c2ccccc2)c1=O)N1CCCc2ccccc21		inactive: -11.4%
CC1CN(CCc2ccccc2)CC(C)O1 (centres undefined)	inconclusive [inhibitor, partial curve, poor fit]	
CN1CCN(c2ccc(S(=O)(=O)N3CCCCC3)cc2NC(=O)CSCc2ccccc2)CC1	inconclusive [inhibitor, partial curve]	
CC(C)CN(CCNC(=O)c1cn(C)c2ccc(S(=O)(=O)N3CCCC3)cc2c1=O)CC(C)C		inactive: -1.93%
COCCn1c(SCC(=O)c2ccccc2)nc2ccccc2c1=O		inactive: 1.64%
COC(=O)C1(CC2CC(c3ccncc3)=NO2)CCN(C(=O)OC(C)(C)C)CC1 (centres undefined)	inconclusive [inhibitor, single point]	
COc1ccccc1CNC(=O)C(=O)NCC1OCCN1S(=O)(=O)c1cccs1 (centres undefined)	inconclusive [inhibitor, partial curve]	
Cc1cc(C)c2sc(NC(=O)c3ccc([N+](=O)[O-])o3)nc2c1	inconclusive [inhibitor, full curve]	
Oc1cccc(Nc2nc(N3CCOCC3)nc(N3CCOCC3)n2)c1	active: 11.7 µM	
CC1CC(C)CN(CCCNC(=O)c2cc3c(s2)-c2ccccc2OC3)C1 (centres undefined)	active: 2.94 µM	
CC1(c2ccccc2)CC(C)(C)N2C(=O)C(=O)c3cccc1c32 (centres undefined)	active: 11.7 µM	
COc1cc(C(=O)O/N=C(\N)c2ccccn2)cc(OC)c1OC	inconclusive [inhibitor, single point]	
O=C(CSc1nncs1)Nc1ccc2c(c1)OCO2		inactive: 43.7%
O=C(Nc1ccc(F)cc1)N1CCN(C/C=C/c2ccccc2)CC1	inconclusive [inhibitor, partial curve]	
O=C(NCCc1ccccc1)c1ccc(Cl)c(S(=O)(=O)N2CCCC2)c1		inactive: -16.4%
COCCn1c(N)c(N(Cc2ccccc2)C(=O)CSCC(=O)Nc2ccc(C)cc2)c(=O)[nH]c1=O		inactive: 3.97%
Cc1ccc2nc(SCC(=O)NCc3ccco3)c(C)cc2c1	inconclusive [inhibitor, partial curve, poor fit]	
C=CCn1c(SCC(=O)Nc2c(C)nn(Cc3ccccc3)c2C)nnc1C(O)c1ccccc1 (centres undefined)	inconclusive [inhibitor, partial curve]	
CCCN(C(=O)c1ccccc1Cc1ccccc1)C1CCS(=O)(=O)C1 (centres undefined)	inconclusive [inhibitor, single point]	
COc1ccc(C(=O)Nc2ccccc2N2CCN(C(=O)c3ccccc3)CC2)cc1Br	active: 2.08 µM	
